Out of some 310,000 compounds screened, about 2,200 (0.71%) showed an effect of 50% or more. Effects have a minus sign here. The list shows a part of the results.

For this test, the target named is human ether-à-go-go-related gene (hERG) potassium channel (human, UniProt Q12809). As to the kind of experiment: primary screen, population patch clamp on CHO cells stably expressing hERG.
Sequence of human ether-à-go-go-related gene (hERG) potassium channel (Q12809 whole entry, looked up): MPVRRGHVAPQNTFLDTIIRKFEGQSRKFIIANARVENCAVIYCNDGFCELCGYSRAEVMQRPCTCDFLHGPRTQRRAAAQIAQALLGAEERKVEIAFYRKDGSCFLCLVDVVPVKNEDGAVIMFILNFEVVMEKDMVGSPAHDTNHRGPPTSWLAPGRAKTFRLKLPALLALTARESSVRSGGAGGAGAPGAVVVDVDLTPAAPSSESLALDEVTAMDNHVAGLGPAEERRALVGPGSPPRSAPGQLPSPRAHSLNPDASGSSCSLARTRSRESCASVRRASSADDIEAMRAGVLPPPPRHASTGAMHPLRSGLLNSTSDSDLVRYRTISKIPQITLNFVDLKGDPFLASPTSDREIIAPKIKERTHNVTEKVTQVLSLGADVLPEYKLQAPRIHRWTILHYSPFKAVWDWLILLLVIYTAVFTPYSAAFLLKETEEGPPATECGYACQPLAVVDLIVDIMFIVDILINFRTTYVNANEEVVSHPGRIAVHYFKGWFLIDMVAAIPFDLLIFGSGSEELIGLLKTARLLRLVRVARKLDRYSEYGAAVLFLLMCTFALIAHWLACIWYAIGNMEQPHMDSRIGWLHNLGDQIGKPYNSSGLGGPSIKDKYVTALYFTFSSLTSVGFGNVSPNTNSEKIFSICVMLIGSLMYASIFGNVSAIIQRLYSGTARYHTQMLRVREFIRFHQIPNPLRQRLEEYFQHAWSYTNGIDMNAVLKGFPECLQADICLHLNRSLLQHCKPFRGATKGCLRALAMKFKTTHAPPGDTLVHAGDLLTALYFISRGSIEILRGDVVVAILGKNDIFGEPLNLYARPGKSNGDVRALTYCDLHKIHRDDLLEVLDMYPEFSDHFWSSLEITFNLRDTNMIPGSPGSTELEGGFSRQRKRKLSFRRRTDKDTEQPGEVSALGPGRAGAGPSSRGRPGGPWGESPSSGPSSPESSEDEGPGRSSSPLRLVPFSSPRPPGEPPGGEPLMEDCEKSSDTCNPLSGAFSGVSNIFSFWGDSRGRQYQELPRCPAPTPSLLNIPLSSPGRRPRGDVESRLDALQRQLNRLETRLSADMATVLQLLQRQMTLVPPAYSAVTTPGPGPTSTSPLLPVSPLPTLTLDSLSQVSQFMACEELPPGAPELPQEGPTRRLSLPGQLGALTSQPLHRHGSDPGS
`CCN(CC)c1ccc(NC(=O)c2nc3nc(C)cc(C(F)F)n3n2)cc1`: the “hERG current change (%, negative = inhibition) at 1uM” value was -12.2%. Turning to `C=CCNC(=O)C1CC(=O)N(c2ccc(OCC(=O)Nc3ccc(CC)cc3)cc2)C1` (stereo not drawn), the “hERG current change (%, negative = inhibition) at 1uM” value is 15.7%. For the compound `CC(NS(=O)(=O)c1ccc(F)cc1)C(=O)NCc1ccncc1` (stereo not drawn), the “hERG current change (%, negative = inhibition) at 1uM” value is recorded as -0.322%. As to `COc1ccc(NC(=O)c2cc(Br)ccc2Cl)c([N+](=O)[O-])c1`, the “hERG current change (%, negative = inhibition) at 1uM” value amounted to 5.86%. Turning to `S=C(NCc1ccccc1)NNc1nc2ccccc2[nH]1`, the “hERG current change (%, negative = inhibition) at 1uM” value was found to be 16.2%. The figure for `CCC(C)[C@H](NC(=O)[C@@H]1Cc2c([nH]c3ccccc23)C2c3ccccc3C(=O)N21)C(=O)N1CCC[C@@H]1C(=O)O` (stereo partly drawn) is 5.99%; for `O=C(Cc1cc(=O)oc2cc(O)ccc12)NCC1CCC(C(=O)O)CC1` (stereo not drawn) it is 11.6%. The figure for `CC(C)CNC(=S)NC1CC2CCC(C1)N2Cc1ccccc1` (stereo not drawn) is -10.1%. In the case of `Cc1cc(C(=O)COC(=O)Cn2cnc3c2c(=O)n(C)c(=O)n3C)c(C)n1C`, the “hERG current change (%, negative = inhibition) at 1uM” value came out at 6.15%. Next, `COC(=O)c1cc(-c2ccc3c(c2)OCO3)nc2ccccc12`: 2.46%. In the case of `Cc1ccnc(NS(=O)(=O)c2cc(-c3cc(C)no3)ccc2C(C)C)c1`, the “hERG current change (%, negative = inhibition) at 1uM” value worked out at 5.18%. Take `CCCS(=O)(=O)N1CCCC(C(=O)c2ccccc2OC)C1` (stereo not drawn): the “hERG current change (%, negative = inhibition) at 1uM” value is reported as 1.77%.

In the case of `O=C(Cn1c(=O)oc2ccc(Cl)cc21)Nc1ccon1`, the “hERG current change (%, negative = inhibition) at 1uM” value was found to be 10.3%. The figure for `CCCN1CCN(C(=O)CCNC(=O)Cn2cnc3ccccc3c2=O)CC1` is 9.86%; for `CCOCCCNC(=O)C1(O)c2ccccc2NC(=O)N1c1ccc(C)c(C)c1` (stereo not drawn) it is 14.2%. Take `COCCn1nnnc1C(c1ccccc1)N1CCN(C)CC1.Cl` (stereo not drawn): the “hERG current change (%, negative = inhibition) at 1uM” value is 4.45%. For `COc1ccc(-n2nc3c(N4CCC(C(=O)NCc5ccco5)CC4)nnc(C)c3c2C)cc1`, the “hERG current change (%, negative = inhibition) at 1uM” value worked out at 9.69%. Consider `Cc1ccc(C(=O)C2=C(O)C(=O)N(Cc3cccnc3)C2c2cccc(Oc3ccccc3)c2)o1` (stereo not drawn), for which the “hERG current change (%, negative = inhibition) at 1uM” value was found to be 12.6%. For the compound `Cc1cc(NC(=O)C2CC(c3ccc(Cl)cc3)=NO2)no1` (stereo not drawn), the “hERG current change (%, negative = inhibition) at 1uM” value is -3.86%. Next, `Cc1cc(=O)[nH]c2c1c(-c1ccccc1)nn2C`: 11.2%; `O=c1[nH]c2cc3c(cc2cc1C(c1nnnn1C1CCCC1)N1CCSCC1)OCCO3` (stereo not drawn): 8.11%. Consider `CC(C)=CCc1c(O)cc2oc3c(CC=C(C)C)c(O)c(O)c(CC=C(C)C)c3c(=O)c2c1O`, for which the “hERG current change (%, negative = inhibition) at 1uM” value is listed as 10.5%. The figure for `CSc1ccc(S(=O)(=O)N2CCN(Cc3ccc4c(c3)OCO4)CC2)cc1` is 4.77%; for `CC(C)(C)CC(=O)Nc1nnc(SCC(=O)Nc2ccccc2F)s1` it is 15.9%; for `Cc1cccc(NC(=O)CC(=O)Nc2cccc(C)c2)c1` it is 13.6%. Next, `CCOC(=O)c1oc2c(CN3CCCCC3C)c(O)ccc2c(=O)c1-c1ccc(OC)c(OC)c1` (stereo not drawn): -3.28%. Turning to `COc1cc(CN2CCNC(=O)C2CC(=O)N(C)CCCN2CCOCC2)cc(OC)c1` (stereo not drawn), the “hERG current change (%, negative = inhibition) at 1uM” value came out at 4.44%. Turning to `Cc1cccc(NC(=O)CSc2nc3ccccc3nc2N2CC(C)OC(C)C2)c1` (stereo not drawn), the “hERG current change (%, negative = inhibition) at 1uM” value is -5%. The figure for `Cc1cc(NC(=O)CSc2nnc(Nc3ccccc3)s2)no1` is 2.15%; for `CC1CCCC(C(=O)OCc2ccccc2)N1.Cl` (stereo not drawn) it is 13%. As for `Cc1ccc(-n2c(C)c(C)c3c(NCCN(C)C)ncnc32)cc1`, the “hERG current change (%, negative = inhibition) at 1uM” value was 6.22%. Next, `Nc1nc(SCC(=O)Nc2ccc([N+](=O)[O-])cc2Br)n[nH]1`: 8.66%; `CC(c1nnc(SCC(=O)Nc2cccnc2Cl)n1Cc1ccccc1)N(C)C` (stereo not drawn): 10.6%; `CN(CC(=O)Nc1ccccc1-c1ccccc1)C1CCCCC1.[O-][Cl+3]([O-])([O-])O`: 13.3%. The figure for `COc1cc(C2Nc3ccccc3C(=O)N2c2ccccc2)c(Br)cc1OCC(=O)O` (stereo not drawn) is 6.46%; for `CCc1nnc(NC(=O)C2CCCN(C(=O)c3ccc(Cl)cc3)C2)s1` (stereo not drawn) it is 27.3%. The figure for `COc1ccc(C(CCN(Cc2ccc(OC)c(OC)c2)C(C)=O)C(C)C)cc1` (stereo not drawn) is -3.75%; for `COc1ccc(S(=O)(=O)NC(CC(=O)NCC2CCCO2)c2ccco2)cc1` (stereo not drawn) it is 8.13%; for `CCOC(=O)Cc1csc(NC(=O)c2c(O)c3ccccc3n(CCC(C)C)c2=O)n1` it is 6.25%. For the compound `CSCCC(NS(=O)(=O)/C=C/c1ccccc1)C(=O)O` (stereo not drawn), the “hERG current change (%, negative = inhibition) at 1uM” value was 9.33%. The figure for `CN(C)/C=C/C(=O)c1cccc(Cl)c1` is 7.78%. Next, `CCOC(=O)c1c(C)[nH]c(C(=O)OCC(=O)N2CCN(S(=O)(=O)c3ccc(C)cc3C)CC2)c1C`: 6.79%; `CCOC(=O)c1sc2nc(Cc3ccc(Cl)cc3)[nH]c(=S)c2c1C`: 11.7%. For the compound `COc1ccc(-n2c(CNCCc3ccc(C)cc3)nc3ccccc3c2=O)cc1`, the “hERG current change (%, negative = inhibition) at 1uM” value came out at 7.64%. Next, `O=C(NCN1C(=O)C2C3C=CC(C3)C2C1=O)Nc1ccccc1O` (stereo not drawn): 9.21%; `CCOC(=O)C(C#N)C(Cc1ccccc1)c1ccco1` (stereo not drawn): 0.241%. Next, `O=C([O-])c1ccc(-n2nc(C(F)(F)F)c3c2CCCC3)cc1.[K+]`: 12.2%; `O=C(Nc1ccccc1C(=O)OCC(=O)c1c[nH]c2ccccc12)c1ccco1`: 6.61%. The figure for `Cn1ccnc1SCC(=O)Nc1ccc(Br)cc1C(F)(F)F` is -0.515%; for `[C-]#[N+][C@H](O[C@@H]1O[C@H](CO)[C@@H](O)[C@H](O)[C@H]1O)c1ccccc1` it is -2.86%. Take `CC(=O)OCC(=O)NCC(=O)c1c[nH]c2ccccc12`: the “hERG current change (%, negative = inhibition) at 1uM” value amounted to 14.6%.

With `CCn1cc(C(=O)O)c(=O)c2cnc(N3CCN(C(=S)NC(=O)c4ccc(Cl)cc4)CC3)nc21`, the “hERG current change (%, negative = inhibition) at 1uM” value is recorded as 8.69%. Next, `O=S(=O)(Cc1ccccc1)/C1=C(\N2CCOCC2)CCCCCC1`: -3.85%.

Regarding `C[C@H](CO)NC(=O)[C@H](C)[C@@H]1C[C@@]1(C)[C@@H](NC(=O)OCc1ccccc1)c1ccccc1`, the “hERG current change (%, negative = inhibition) at 1uM” value is -11.2%.

(Values after paper PMC4336329 (PLoS ONE, 2015).)
